# Test results published in PubChem BioAssay AID485297 (National Center for Advancing Translational Sciences (NCATS), 2010).
# Out of some 320,000 compounds screened, about 9,100 (2.8%) were called active. Inconclusive means that the source gave no clear call. Such entries were picked first, then a sample of the others. Calls follow the shape of the dose curve; as a rule, active = well fitted activation curve with a large enough effect; inconclusive = small, poorly fitted or top-dose-only effect; inactive = no such curve, though single readings can be large or run the other way. No potency is given beside an inconclusive call; the fits are too rough.
# Experiment: qHTS Assay for Rab9 Promoter Activators; also: nearly all actives have a fitted effect of over 60% in size; as to activation, negative = inhibition: % of control where 0% means no effect
# Conditions: Huh7 Rab9 promoter-luciferase reporter, luminescence, 24 h; series mostly up to 9.22 µM; activation, negative = inhibition: at the top concentration
# Summary of the method: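 Cells were plated at 1500 per well in reduced-serum medium with 10% FBS and left 2 h. Compound in DMSO was then added for 24 h at 37 °C. Reporter signal was read by luminescence after 10 min with luciferase detection reagent.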
# Potency is read from the fitted curve at half-maximal effect; tags tell the direction and shape of the fitted curve.
Compound,"activation, negative = inhibition",Potency
O=C(c1ccco1)N1N=C(c2ccc3nccnc3c2)CC1c1ccccc1 (configuration not stated),inactive: 16.5%,–
COCC1CCN(C(=O)CCc2nnc(C3(c4ccc(Cl)cc4)CCC3)o2)C1 (configuration not stated),–,"inconclusive [activator, single point]"
O=C(Nc1ccccc1Br)c1ccc(N2CCCC2=O)cc1,–,active: 2.51 µM
COc1cc(/C=N/Nc2nc3ccccc3s2)ccc1OC(=O)c1ccccc1F,–,"inconclusive [activator, single point]"
CC1CCN(c2ccc(-c3cccc(NC(=O)C(F)(F)F)c3)nn2)CC1,–,active: 0.316 µM
c1ccc(NCc2nc(-c3ccccc3)no2)cc1,–,"inconclusive [activator, single point]"
Cc1ccc(NC(=O)Nc2cnccn2)cc1C,–,"inconclusive [activator, partial curve]"
O=C(O)c1cc(-c2cccs2)nc2ccc(F)cc12,inactive: -0.1%,–
O=C(Nc1ccc(O)cc1)c1cc2ccccc2c(=O)s1,–,"inconclusive [activator, single point]"
O=C(NCCc1cccs1)c1ccc(Cl)cc1,–,active: 0.316 µM
O=C(Nc1cccc(Cl)c1)c1ccc(F)c(S(=O)(=O)NCc2ccc3c(c2)OCO3)c1,inactive: -4.39%,–
CC(C)(C)c1ccc(C(=O)N/C(=C\c2cccc([N+](=O)[O-])c2)C(=O)Nc2cccc(C(=O)O)c2)cc1,inactive: 14%,–
Cc1ccsc1/C=N/NC(=O)c1ccc2c(c1)OCCO2,–,active: 0.355 µM
COc1ccccc1OCCCC(=O)NCc1ccco1,–,"inconclusive [activator, single point]"
O=C(Nc1cccnc1Cl)c1cc(-c2ccc(F)cc2)on1,–,"inconclusive [activator, single point]"
COc1ccc(-n2ncc(C(=O)N3CCN(c4ccc(F)cc4)CC3)c2C)cc1,inactive: -13.6%,–
Fc1ccccc1CSc1nc2ncccc2[nH]1,–,"inconclusive [activator, single point]"
Cc1cccc2sc(NNC(=O)c3cc(=O)c4ccccc4o3)nc12,–,"inconclusive [activator, single point]"
c1csc(-c2nc3ccccc3[nH]2)c1,–,"inconclusive [activator, partial curve]"
COc1ccccc1NC(=O)Cn1c(=O)n(CCc2c[nH]c3ccccc23)c(=O)c2cccnc21,inactive: -0.271%,–
O=C(/C=C/c1ccc(Cl)c([N+](=O)[O-])c1)Nc1cccc(NC(=O)c2ccco2)c1,inactive: -2.81%,–
O=C(Nc1ccon1)c1ccc(OC2CCCC2)cc1,–,active: 2 µM
